Drawing on PubChem BioAssay AID485344 (National Center for Advancing Translational Sciences (NCATS), 2010), this text covers inhibition for 94 compounds.

The campaign covered roughly 340,000 compounds. About 6,900 (2%) were called active. No stated cut-off is given here; in the data, active means inhibition above about 30%; inactive means below that, where a call was filed. The list shows a part of the results, in another mix than the full data. Where no call is shown, the source filed none.

UniProt P14416, sequence (P14416 whole entry, looked up): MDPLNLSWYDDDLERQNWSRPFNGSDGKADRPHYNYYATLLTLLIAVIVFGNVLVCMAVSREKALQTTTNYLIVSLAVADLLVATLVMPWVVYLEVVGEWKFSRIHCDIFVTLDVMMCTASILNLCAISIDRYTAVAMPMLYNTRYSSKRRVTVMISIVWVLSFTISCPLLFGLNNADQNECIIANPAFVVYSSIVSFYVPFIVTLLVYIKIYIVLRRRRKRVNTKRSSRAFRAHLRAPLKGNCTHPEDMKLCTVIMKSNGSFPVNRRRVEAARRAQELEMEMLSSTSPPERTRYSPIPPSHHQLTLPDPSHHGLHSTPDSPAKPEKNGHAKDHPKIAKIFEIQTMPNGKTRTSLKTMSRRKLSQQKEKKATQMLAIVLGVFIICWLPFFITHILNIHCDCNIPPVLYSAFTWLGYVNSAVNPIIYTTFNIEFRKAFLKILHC

The test deals with D(2) dopamine receptor (Homo sapiens) (UniProt P14416). The test is described as follows: HTS Assay for Allosteric Antagonists of the Human D2 Dopamine Receptor: Primary Screen for Antagonists. Further: 0% is about no effect. The note with it: HEK293 TREx D2 cells, calcium flux, dopamine EC80; at 10 µM; stronger effect = higher value. Summed up:
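Dopamine at EC80 is the agonist stimulus; test compounds precede it by 180 s. Calcium flux read kinetically in a force-coupled, inducible HEK293 T-REx D2 cell line.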
For the compound `Cc1cc(C(=O)NCc2ccc(Cl)cc2)c2c(C)nn(-c3ccccc3)c2n1`, the inhibition amounted to 3.8%.

With `COc1ccccc1CNC(=O)CCC1N=C2c3ccccc3N=C(SCc3ccc(C)cc3)N2C1=O` (centres undefined), the inhibition was 7.27%. For the compound `COC(=O)c1c(NC(=O)Nc2ccc(Cl)cc2)sc(C)c1C`, the inhibition was found to be 26.3%. `CCC(C)NC(=O)c1ccc(NC(=O)C2=C(C)OCCS2)cc1` (centres undefined): the inhibition is active: 43.9%. Consider `CN(C)c1ccc(NC(=O)Cn2cc(S(=O)(=O)Cc3cccc(Cl)c3)c3ccccc32)cc1`, for which the inhibition was -4.28%. Consider `Cc1nc2scc(C)n2c(=O)c1S(=O)(=O)N1CCN(c2cccc(C(F)(F)F)c2)CC1`, for which the inhibition was -6.15%. `Cc1ccc2c(c1)c(N1CCCC1=O)c(C(=O)Nc1ccc(F)cc1F)n2C`: the inhibition was 3.56%. The result for `Cc1cccc(N(C)c2ccc3cc(S(=O)(=O)N4CCCC4)ccc3n2)c1` reads 3.54%.

For `CCC(=O)N1CCc2cc(S(=O)(=O)NC(Cc3ccccc3)C(=O)Nc3cccc(OC)c3)ccc21` (centres undefined), the inhibition turned out to be 3.66%. Regarding `COc1cccc(N2CCN(c3ncnc4onc(-c5ccc(F)cc5)c34)CC2)c1`, the inhibition is -5.12%.

In the case of `Cc1ccc(S(=O)(=O)c2nnn3c2nc(N2CCCC2)c2sccc23)cc1`, the inhibition is -19.6%. For the compound `Cc1ccc(-c2nnc3c4ccccc4c(C)nn23)cc1NC(=O)c1ccccc1Cl`, the inhibition is -4.6%. Consider `CCOC(=O)c1cc(S(=O)(=O)N2CCN(c3ccc(C)cc3C)CC2)[nH]n1`, for which the inhibition was determined as 3.4%. On to `Cc1ccc(C)c(NC(=O)CSC2=Nc3ccccc3N=C(c3ccc(F)cc3)C2)c1`, for which the inhibition was determined as 8.94%. `O=C(CCCCCn1c(=O)[nH]c2ccccc2c1=O)NCc1ccccc1`: the inhibition turned out to be 3.31%. Turning to `O=C(C1CCCN(S(=O)(=O)c2cccc3nsnc23)C1)N1CCN(c2ccccc2Cl)CC1` (centres undefined), the inhibition was -5.95%. On to `Cc1ccccc1Cn1c(CN2CCCC(C)C2)nc2c1c(=O)n(C)c(=O)n2C` (centres undefined), for which the inhibition was 1.4%. For `Cn1c(=O)cc(OCC(=O)NCCCN2CCN(c3ccccc3F)CC2)c2ccccc21`, the inhibition was active: 78.2%. Regarding `CC(C)(C)C1CCC(C(=O)Nc2ccc(N3CCOCC3)cc2N2CCOCC2)CC1` (centres undefined), the inhibition was active: 31.4%. `CCc1cccc(C)c1NC(=O)c1cccc(C(=O)Nc2c(C)cccc2CC)c1`: the inhibition was determined as 3.96%. With `CCOc1ccc(C(=O)c2cn(CC(=O)Nc3ccc(Cl)cc3)c3cc4c(cc3c2=O)OCCO4)cc1`, the inhibition came out at 13.2%. As to `Cc1ccc(C)c(N2CCN(C(=O)c3noc4c3CCCCC4)CC2)c1`, the inhibition is -4.48%. For the compound `CCOc1ccccc1NC(=O)Cn1c(=O)n(-c2cccc(C)c2)c(=O)c2c1c1cc(OC)ccc1n2C`, the inhibition was -1.63%.

Turning to `COc1ccc(OC)c(NC(=O)/C=C/c2ccc(C)o2)c1`, the inhibition was -5.62%. As for `COc1ccc(C2C=C(c3ccccc3)Nc3nc(NS(=O)(=O)c4ccc(Cl)cc4)nn32)cc1` (centres undefined), the inhibition came out at 8.36%. For `O=C(Cn1c(=O)n(CC2CCC(C(=O)NCCc3ccccc3)CC2)c(=O)c2ccccc21)Nc1cccc(F)c1` (centres undefined), the inhibition came out at 13.5%.

Consider `CC(=O)c1cc2c(cc1N/C(=N/S(=O)(=O)c1ccc(Br)cc1)c1ccccc1)OCO2`, for which the inhibition is 4.22%. As to `COc1ccc(C(=O)Cn2c(=O)c(-c3cc(C)ccc3NC(C)=O)nc3ccccc32)cc1`, the inhibition was 25.9%.

In the case of `O=C(COc1ccccc1)NC1CC(=O)N(c2ccc3c(c2)OCCO3)C1` (centres undefined), the inhibition came out at 4.4%.

For the compound `COC(=O)c1ccccc1NC(=O)N1CCc2c(sc3c2CCCC3)C1c1ccc(F)cc1` (centres undefined), the inhibition turned out to be 5.17%. `CC(C)CC(=O)Nc1c(C(=O)N2CCN(c3ccccc3)CC2)oc2ccccc12`: the inhibition was -12.5%. On to `CCc1ccc(OCC(=O)N/N=C(\C)c2ccc(O)cc2O)cc1`, for which the inhibition was active: 44.9%. `O=C(COc1ccccc1[N+](=O)[O-])N(Cc1ccco1)c1ccccn1`: the inhibition turned out to be 20.1%. Take `COc1ccc(C)cc1NC(=O)N1CCCn2nc(C)cc21`: the inhibition came to 2.74%. The result for `O=C(C1CCC1)N1CCc2cc(S(=O)(=O)NCc3ccc(F)cc3)ccc21` reads 8.01%. On to `CC(C)n1c(=N)c(C(=O)NCc2ccccc2)cc2c(=O)n3ccccc3nc21`, for which the inhibition was -13.2%. Take `COc1cc(NC(=O)c2cc(S(=O)(=O)N3CCc4ccccc43)cn2C)cc(OC)c1OC`: the inhibition was 19.6%. As for `CC(=O)Nc1cccc(NC(=O)CSc2nnc(Cc3cccn3C)n2-c2ccc(F)cc2)c1`, the inhibition was active: 48.8%. Turning to `COc1ccc(OC)c(NC(=O)c2cnn(-c3ccc(C)cc3)c2C2CCNCC2)c1`, the inhibition is 11.6%. Turning to `CC(=O)c1cccc(NC(=O)c2noc3c2CCCC3)c1`, the inhibition is -2.18%. The result for `CCc1ccccc1N(C)C(=O)c1cc2c(=O)oc3ccccc3c2s1` reads 10.3%; that for `O=C(CN1CCC(NC(=O)C2CC2)CC1)Nc1cccc(F)c1`, active: 31.5%; that for `Cc1ccc(N2C(=O)CSC23C(=O)N(CC(=O)Nc2ccc(C(C)C)cc2)c2ccccc23)cc1C` (centres undefined), -9.15%. In the case of `O=C(Nc1cccnc1Cl)c1cc(-c2cccc(Cl)c2)on1`, the inhibition is -7.13%. For the compound `CCOc1ccc(CCNC(=O)CCc2cn(Cc3ccc(F)cc3)c3ccccc23)cc1`, the inhibition is -4.58%. Turning to `COc1ccc(-n2nc(C(=O)Nc3cccc(C)n3)c3c4ccccc4n(C)c3c2=O)cc1Cl`, the inhibition was determined as 7.36%. On to `COc1cccc(NC(=O)C(Cc2ccccc2)NS(=O)(=O)c2ccc3c(c2)oc(=O)n3C)c1` (centres undefined), for which the inhibition is -7.73%. As for `Cc1coc2cc3oc(=O)c(CC(=O)NCCc4ccccc4)c(C)c3cc12`, the inhibition was -1.94%. Take `CCOc1ccc(NC(=O)Cn2cc(C(=O)c3ccco3)c3ccccc32)cc1`: the inhibition came out at 2.58%. For the compound `COc1ccccc1CNC(=O)CCCNS(=O)(=O)c1cccc2nsnc12`, the inhibition was active: 42.4%. Consider `CCn1c(=O)cc(OCC(=O)Nc2cc(Cl)c(OC)cc2OC)c2ccccc21`, for which the inhibition came out at 4.04%. For the compound `CCOc1ccc(CCNC(=O)c2cc3c(-c4ccc(OC)c(OC)c4)nn(C)c3s2)cc1OCC`, the inhibition amounted to 7.28%. In the case of `CCCN(CCC)C(=O)c1c2c(nc3ccccc13)C(=O)N(C1CCCCC1)C2`, the inhibition is 1.36%. For `Cc1cc(S(=O)(=O)C(CNC(=O)COc2ccc(Cl)cc2)c2cccs2)ccc1F` (centres undefined), the inhibition stood at 3.61%. The result for `Cc1ccc(CCNC(=O)C2CCN(Cc3nc(-c4ccccc4C)oc3C)CC2)cc1` reads -7.87%; that for `CC(=O)NCC(=O)N(Cc1ccco1)C1(C(=O)NC2CCCCC2)CCCCC1`, active: 72.5%. As to `Brc1ccc(-n2nc(-c3ccccc3)c3cnc4cc5c(cc4c32)OCO5)cc1`, the inhibition turned out to be 2.29%. The result for `COc1ccc(OC)c(CCNc2nc3ccccc3c3nc(-c4cccnc4)nn23)c1` reads 13.9%; that for `Cc1ccc2[nH]c(CSc3nnc(NC(=O)c4ccc(Cl)cc4)s3)cc(=O)c2c1`, -4.69%; that for `CCc1ccccc1NC(=O)CSc1nnc2ccc3ccccc3n12`, -1.26%. With `Cc1cccc(N2CCN(S(=O)(=O)c3cc(C(=O)Nc4ccccc4Cl)ccc3F)CC2)c1C`, the inhibition was -17%. For the compound `O=C(CSCc1cc(=O)c2cc(F)ccc2[nH]1)Nc1ccccc1Cl`, the inhibition was 10.3%.

Regarding `COC(=O)c1cc2oc3ccccc3c2n1Cc1nc(-c2ccccc2C)oc1C`, the inhibition came to 13.4%. Turning to `Cc1ccc(NC(=O)[C@@H](c2ccccc2)N2Cc3ccccc3C2=O)cc1`, the inhibition was -8.77%. `CC(C)(C)OC(=O)N1CCC(c2c(C(=O)NCCN3CCC(Cc4ccccc4)CC3)cnn2-c2ccc(F)cc2)CC1`: the inhibition came to 14.4%.

On to `CCOCc1ccccc1Nc1ncnc2onc(-c3ccc(Cl)cc3)c12`, for which the inhibition amounted to 24.1%. Consider `CCc1cccc(NC(=O)C(c2ccccc2)N2Cc3ccccc3C2=O)c1` (centres undefined), for which the inhibition is -16.1%. Take `CCC(Sc1nncn2c1cc1oc(C)cc12)C(=O)Nc1ccc(F)cc1` (centres undefined): the inhibition was -12.7%. In the case of `COCCn1c(=N)c(C(=O)NC(C)c2ccccc2)cc2c(=O)n3cc(C)ccc3nc21` (centres undefined), the inhibition came to 9.77%. The result for `COc1ccccc1CC(=O)Nc1ccc(S(=O)(=O)N2CCCC2)cc1` reads active: 39.2%; that for `N#Cc1c(C(F)(F)F)cc(-c2ccccc2Cl)[nH]c1=O`, active: 44.4%. In the case of `COc1ccc(CCNC(=O)C(=O)NCC(c2ccco2)S(=O)(=O)c2ccc(F)cc2)cc1` (centres undefined), the inhibition was -13.8%. The result for `O=C1CCSC2(C(=O)N(Cc3ccc(F)cc3)c3ccccc32)N1c1ccc(F)c(F)c1` (centres undefined) reads 8.34%; that for `CCc1ccc(-c2nc(CS(=O)CC(=O)NCCc3ccc(Cl)cc3)c(C)o2)cc1` (centres undefined), -2.22%. As for `CS(=O)(=O)N1CCC(N2CCN(Cc3ccccc3)C(=O)C2=O)CC1`, the inhibition amounted to 2.77%. The result for `CCOc1ccc2oc(=O)cc(CN3CCN(C(=O)c4ccc(F)cc4)CC3)c2c1` reads -12.2%. As for `CCNC(=O)CC1C(=O)N(c2cccc(OC)c2)C(=O)N1Cc1ccc(OC)c(OC)c1` (centres undefined), the inhibition is -5.58%.

For `Cc1c(C(=O)Nc2cccc(Cl)c2)oc2ccc(S(=O)(=O)N(C)C3CCCCC3)cc12`, the inhibition amounted to 23.6%. With `COc1cccc(NC(=O)Cn2c(=O)n(-c3ccc(C)cc3)c(=O)c3ccc(C(=O)NCc4ccco4)cc32)c1`, the inhibition was -12.3%. As for `Cc1nc2ncnn2c(C)c1CCC(=O)NCc1ccccc1Cl`, the inhibition was -7.81%. With `CCOc1ccccc1N(CC(=O)N1CCc2ccccc2C1)S(=O)(=O)c1ccccc1`, the inhibition is -0.205%. The result for `O=S(=O)(Nc1cccc(-c2ccc(N3CCCCCC3)nn2)c1)c1cccc(F)c1` reads -15.9%.

For `CCN(CC)S(=O)(=O)c1ccc2c(c1)c(=O)c(C(=O)N1CCN(c3ccc(F)cc3)CC1)cn2C`, the inhibition was -8.34%.

For the compound `CC(=O)N1CCc2cc(S(=O)(=O)CCC(=O)NCc3ccc(Cl)cc3)ccc21`, the inhibition came out at 1.7%. Consider `O=C(Cn1ncc2c3ccccc3n(Cc3cccc(Cl)c3)c2c1=O)NC1CCCCCC1`, for which the inhibition came to 1.96%.

Turning to `CCc1ccc(NC(=O)CSC2=Nc3ccccc3C3=NC(CC(=O)NCc4ccccc4)C(=O)N23)cc1` (centres undefined), the inhibition was 6.14%.

Turning to `CCN1CCSc2ccc(C(=O)NCc3ccc(OC)cc3)cc21`, the inhibition is -7.73%. With `COC(=O)CCN(c1ccccc1)S(=O)(=O)c1cc(-c2cc(C)no2)ccc1OC`, the inhibition was -1.2%. As to `O=C(NCCCc1ccccc1)C1CCN(C(=O)N2CCOc3ccc(Cl)cc32)CC1`, the inhibition came out at 11.5%. For the compound `Cn1ccc2c(OCC(=O)Nc3cc(C(F)(F)F)ccc3Cl)cccc2c1=O`, the inhibition was found to be 2.07%.

For the compound `COc1ccc(C2C=C(c3ccccc3)Nc3nc(NC(=O)/C=C/c4ccccc4)nn32)cc1` (centres undefined), the inhibition was 27.3%.

For `COc1ccc(/C=C/C(=O)Nc2ccccc2C(=O)O)cc1`, the inhibition is active: 33.7%. As to `CCOc1ccccc1NC(=O)CCn1nc(C)c(S(=O)(=O)N2CCCCC2)c1C`, the inhibition came out at 2.84%.

Turning to `CCN(CC)S(=O)(=O)c1ccc2oc(C(=O)N(C)Cc3ccccc3)c(C)c2c1`, the inhibition came to 15.7%.
